From PubChem BioAssay AID1346428 (National Center for Advancing Translational Sciences (NCATS), 2018)
Where “and” joins values, the source holds several entries; their conditions need not be identical. Equal entries are not always repeated. About 1,200 (2.5%) of roughly 48,000 compounds were called active. Inconclusive results (about 2%) are left out.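 The calls were made as follows: active = activation of at least 60% and not above a set upper limit (about 1 call in 100 departs from these limits); inconclusive = activation of 40% to 60%, or above that upper limit; inactive = activation under 40%.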 This is one part of the list.

These compounds were tested against Probable G-protein coupled receptor 32 (Homo sapiens) (UniProt O75388) (assay: qHTS for Agonists of Human Resolvin D1 Receptor DRV1). Conditions: CHO-K1 GPR32 beta-arrestin PathHunter luminescence, 90 min; at 76.9 µM; hits give high values; zero percent set by DMSO-only wells.
Method in brief: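 PathHunter enzyme-fragment complementation, CHO-K1 GPR32 stable line; 2,500 cells/well, overnight attach; cpd 90 min 37 °C 5% CO2; detection reagent 1 h RT; chemiluminescence. DMSO = EC0.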
Also: 0% is about no effect.

Chain of UniProt O75388 (O75388 whole entry, looked up, the tested form may be a part): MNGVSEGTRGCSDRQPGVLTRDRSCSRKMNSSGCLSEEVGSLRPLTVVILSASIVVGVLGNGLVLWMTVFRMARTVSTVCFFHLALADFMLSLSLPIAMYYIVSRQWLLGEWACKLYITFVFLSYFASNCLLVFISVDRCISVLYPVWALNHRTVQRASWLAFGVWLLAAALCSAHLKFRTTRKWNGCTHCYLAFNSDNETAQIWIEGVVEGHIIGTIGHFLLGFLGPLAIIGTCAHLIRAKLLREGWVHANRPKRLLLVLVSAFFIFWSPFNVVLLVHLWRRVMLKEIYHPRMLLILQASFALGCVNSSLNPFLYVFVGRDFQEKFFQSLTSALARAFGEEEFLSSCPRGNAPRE

Row | Structure (SMILES) | activation
1 | CCc1cccc(NC(=O)Cn2c(=O)n(Cc3ccccc3)c(=O)c3c(C)c(C(=O)N(C)C)sc32)c1 | inactive: 9.36%
2 | CCOc1ccccc1N(C)C(=O)c1cc(S(=O)(=O)NCc2ccc(C)cc2)ccc1F | inactive: 4.27%
3 | CN1CCN(C(=O)c2cnn(-c3ccccc3)c2C2CCN(C(=O)OC(C)(C)C)CC2)CC1 | inactive: -11.6%
4 | CCc1nnc(SC(CC)C(=O)NCCOC)c2cc3occc3n12 (stereo not drawn) | inactive: -7.65%
5 | Cc1ccc(CCNC(=O)Cn2ncc3c(=O)oc4ccccc4c32)cc1 | inactive: 12.7%
6 | OCc1ccccc1O | inactive: -20.8%
7 | COc1ccc(-c2nc3ccccc3o2)cc1NC(=O)COc1c(C)cc(Cl)cc1Cl | inactive: 12.3%
8 | CCC(=O)C1=C(c2cccc([N+](=O)[O-])c2)N(C(=O)CC)n2c(nnc2C2CCCCC2)S1 | inactive: -42.7%
9 | CCc1ccc2c(c1)c(=O)c(S(=O)(=O)c1ccccc1)cn2CC(=O)Nc1cc(C)ccc1C | inactive: -0.537%
10 | COc1cc(NC(=O)CN(C)S(=O)(=O)c2ccc3c(c2)CCCC(=O)N3)cc(OC)c1OC | inactive: 21%
11 | Cc1cccc(-c2nc3c4ccccc4n(CC(=O)Nc4cccc(F)c4)c(=O)n3n2)c1 | active: 75.6%
12 | CC(C)(C)OC(=O)N1CCC(c2c(C(=O)N3CCN(c4ccccc4F)CC3)cnn2C(C)(C)C)CC1 | inactive: -8.25%
13 | CCOC(=O)C1CCN(c2csc3ccc(C)cc3c2=O)CC1 | inactive: -26.1%
14 | COC(=O)c1cc2sc(C)cc2n1Cc1nc(-c2cccc(Br)c2)oc1C | inactive: -17.8%
15 | CCC(=O)N1CCc2cc(Br)cc(S(=O)(=O)CCC(=O)NCc3ccc(C)cc3)c21 | inactive: -5.25%
16 | CCOC(=O)[C@@](C)(N)Cc1ccc(O)c(O)c1 | inactive: 15.7%
17 | Cc1cc(O)c(C(c2ccccc2)N2CCN(c3ccccc3F)CC2)c(=O)n1Cc1ccco1 (stereo not drawn) | inactive: -13.1%
18 | COC(=O)c1sc(S(=O)(=O)N2CCN(c3ccc(OC)cc3)CC2)c(C(=O)OC)c1C | inactive: -7.11%
19 | COc1ccc(CNC(=O)C(=O)Nc2ccccc2OC)cc1 | inactive: -5.26%
20 | COc1ccc(OC)c(NC(=O)CSc2nccn2-c2cc(C)cc(C)c2)c1 | inactive: 6.92%
21 | Cc1ccc(-c2nc3ccccc3[nH]2)cc1NC(=O)COc1ccc(Cl)cc1Cl | inactive: -3.54%
22 | O=C(c1ccccc1)c1ccc2n1CCC2C(=O)O (stereo not drawn) | inactive: -4.64% and inactive: -9.23%
23 | CC(=O)Nc1c(C)nn(-c2ccccc2)c1N1CCC(C(=O)Nc2ccc(Cl)cc2C)CC1 | inactive: -7.47%
24 | COc1cc(NC(=O)CN2C(=O)C(c3ccc(C)cc3)=NC23CCCCCC3)cc(OC)c1 | inactive: -32.6%
25 | COc1ccc(-n2c(=O)c3ccc(C(=O)NCc4ccc(C)cc4)cc3n(Cc3ccc(F)cc3Cl)c2=O)cc1 | inactive: 16.2%
26 | CC1(C)N=C(c2ccc(F)cc2)C(=O)N1CC(=O)Nc1ccccc1Cl | inactive: -12.9%
27 | CCCC(=O)Nc1nc2c(s1)CC(C(C)(C)C)CC2 (stereo not drawn) | inactive: -0.408%

Row | Structure (SMILES) | activation
28 | COc1c(N2CCNC(C)C2)c(F)cc2c(=O)c(C(=O)O)cn(C3CC3)c12 (stereo not drawn) | inactive: -17.5%
29 | COc1ccc(N2CCN(C(=O)CCc3nnc4n(C)c(=O)c5sccc5n34)CC2)cc1 | inactive: -2.15%
30 | Cc1ccc(CN2C(=O)CC(c3ccc(Cl)cc3)c3c(C)nn(-c4nc(C)cc(C)n4)c32)cc1 (stereo not drawn) | inactive: -13.3%
31 | COc1ccc(-n2nc3c(c2NC(=O)C(=O)NCc2ccccc2)CSC3)cc1 | inactive: -32.3%
32 | Cc1ccc(Cn2c3ccccc3c3cnn(CC(=O)N4CCCCCC4)c(=O)c32)cc1 | inactive: -6.63%
33 | COC(=O)c1ccc(NC(=O)CSc2nccn2Cc2ccc(Cl)cc2)cc1 | inactive: 4.18%
34 | COC(=O)c1cc2oc(C)cc2n1CC(=O)Nc1ccc(OC)c(OC)c1 | inactive: -3.71%
35 | CCOc1ccc(-n2c(=O)c3c(C)c(C)sc3n(Cc3c(F)cccc3Cl)c2=O)cc1 | inactive: -13.3%
36 | Cn1c(=O)c(=O)n(C)c2cc(NC(=O)c3cccc(F)c3)c(Cl)cc21 | inactive: 12.4%
37 | CCCSCCCNC(=O)C1CCCN(c2nn3cc(-c4ccc(OC)cc4)nc3s2)C1 (stereo not drawn) | inactive: -28.7%
38 | Cc1ccc2cccc(NC(=O)COc3cc(C)c(Cl)c(C)c3)c2n1 | inactive: 25.2%
39 | CN(C)CCCN(C(=O)c1ccc(Br)s1)c1nc2ccc(F)cc2s1 | inactive: 40.3%
40 | CCOc1ccccc1CNC(=O)CCCn1ncn2c(cc3occc32)c1=O | inactive: 1.99%
41 | CCOc1ccc(C(=O)c2cn(CC(=O)Nc3ccc(F)cc3)c3cc4c(cc3c2=O)OCO4)cc1 | inactive: -8.2%
42 | COc1ccc(N(CC(=O)NCc2ccccc2Cl)S(=O)(=O)c2c(C)nn(C)c2C)cc1 | inactive: -25.6%
43 | COc1ccc(CCNC(=O)Cn2c(=O)nc(-c3ccccc3)c3ccccc32)cc1OC | inactive: -3.04%
44 | Cc1nn(CC(=O)Nc2ccccc2C(F)(F)F)c(=O)c2cccn12 | inactive: -3.52%
45 | CCCCN(CC)CCNC(=O)CN1C(=O)COc2ccc(S(=O)(=O)N3CCCC3)cc21 | inactive: -6.16%
46 | CCOc1ccc(C(=O)Nc2c(C(=O)c3ccc(OC)cc3)oc3ccccc23)cc1 | inactive: -4.55%
47 | Cc1ccccc1NC(=O)N1CCc2c(sc3c2CCCC3)C1c1ccccc1 (stereo not drawn) | inactive: -3.5%
48 | COc1ccc(NC(=O)c2ccc3nc(CCc4ccccc4)oc3c2)c(OC)c1 | inactive: -19.8%
49 | O=C(NCCc1ccccc1)c1ccc(Cn2c(SCc3cccc(F)c3)nc3cccnc32)cc1 | inactive: -17.8%
50 | COCCNC(=O)CCc1c(C)nc2c(-c3ccc(F)cc3)c(C)nn2c1C | inactive: 11.8%
51 | COc1cc(C(CC(=O)Nc2ccc(F)cc2F)N2Cc3ccccc3C2=O)cc(OC)c1OC (stereo not drawn) | inactive: -0.81%
52 | COc1ccc(CCNC(=O)CCCCn2c(=O)c3ccccc3n(Cc3ccccc3C)c2=O)cc1OC | inactive: -24.5%
53 | CCn1c(NCc2ccc(OC)cc2)nc2ccccc21 | inactive: -26.4%
